Measurements from the supplement of paper PMC6089552.
Among all 3,200 compounds or so, about 300 (9.4%) showed activity. The entries are a selection whose mix differs from that of the whole data set.

Test system: A673/TR/shEF
Assay: cell viability (LOESS-normalised, relative to median of negative controls) (log2 ratio); higher = more viable cells (less compound effect), active = hit call of the paper (over 3 MAD below the median)
Settings: treatment time: 72 h
Summary of the method: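 Viability of A673/TR/shEF Ewing sarcoma cells was determined by CellTiter-Glo luminescence. The cells, at 1,500 per well in 384-well plates, were grown with or without doxycycline from 24 h before compound addition to switch on EWS-FLI1 shRNA knockdown, then exposed for three days to library compounds at two or more concentrations or to DMSO controls. Signals were LOESS-corrected plate by plate, normalised to the negative-control median and log2-transformed.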

[1] = 0.25 µM, library screen: screen1, EWS-FLI1 expression: high (no doxycycline)
[2] = 0.25 µM, library screen: screen1, EWS-FLI1 expression: low (doxycycline-induced shRNA knockdown)
[3] = 0.25 µM, library screen: screen2, EWS-FLI1 expression: high (no doxycycline)
[4] = 0.25 µM, library screen: screen2, EWS-FLI1 expression: low (doxycycline-induced shRNA knockdown)
[5] = 2.5 µM, library screen: screen1, EWS-FLI1 expression: high (no doxycycline)
[6] = 2.5 µM, library screen: screen1, EWS-FLI1 expression: low (doxycycline-induced shRNA knockdown)
[7] = 2.5 µM, library screen: screen2, EWS-FLI1 expression: high (no doxycycline)
[8] = 2.5 µM, library screen: screen2, EWS-FLI1 expression: low (doxycycline-induced shRNA knockdown)
[9] = 0.103 µM, library screen: screen3, EWS-FLI1 expression: high (no doxycycline)
[10] = 0.103 µM, library screen: screen3, EWS-FLI1 expression: low (doxycycline-induced shRNA knockdown)
[11] = 0.308 µM, library screen: screen3, EWS-FLI1 expression: high (no doxycycline)
[12] = 0.308 µM, library screen: screen3, EWS-FLI1 expression: low (doxycycline-induced shRNA knockdown)
[13] = 0.926 µM, library screen: screen3, EWS-FLI1 expression: high (no doxycycline)
[14] = 0.926 µM, library screen: screen3, EWS-FLI1 expression: low (doxycycline-induced shRNA knockdown)
[15] = 2.8 µM, library screen: screen3, EWS-FLI1 expression: high (no doxycycline)
[16] = 2.8 µM, library screen: screen3, EWS-FLI1 expression: low (doxycycline-induced shRNA knockdown)
[17] = 8.3 µM, library screen: screen3, EWS-FLI1 expression: high (no doxycycline)
[18] = 8.3 µM, library screen: screen3, EWS-FLI1 expression: low (doxycycline-induced shRNA knockdown)
[19] = 25 µM, library screen: screen3, EWS-FLI1 expression: high (no doxycycline)
[20] = 25 µM, library screen: screen3, EWS-FLI1 expression: low (doxycycline-induced shRNA knockdown)

Measured: cell viability (log2)

C/C(O)=C(\C#N)C(=O)Nc1cc(Br)ccc1Br
active: [5] -0.396 | 25 µM, library screen: screen1, EWS-FLI1 expression: high (no doxycycline) -0.451
inactive: 0.025 µM, library screen: screen1, EWS-FLI1 expression: high (no doxycycline) 0.198 | 0.025 µM, library screen: screen1, EWS-FLI1 expression: low (doxycycline-induced shRNA knockdown) -0.0693 | [1] 0.124 | [2] -0.0251 | [3] 0.133 | [4] 0.0965 | [6] -0.0427 | [7] 0.0403 | [8] 0.0594 | 25 µM, library screen: screen1, EWS-FLI1 expression: low (doxycycline-induced shRNA knockdown) -0.00927

CNC(=O)Oc1cccc2c1OC(C)(C)C2
inactive: [1] 0.0513 | [2] 0.0685 | [5] 0.07 | [6] 0.106

CN1C2CCC1CC(OC(c1ccccc1)c1ccc(Cl)cc1)C2 (stereo not given)
inactive: [3] 0.142 | [4] 0.124 | [7] 0.232 | [8] 0.111

CCCn1c(=O)c2[nH]c(C3CCCC3)nc2n(CCCOC(=O)c2ccc(S(=O)(=O)F)cc2)c1=O
inactive: [3] 0.208 | [4] 0.0412 | [7] 0.0267 | [8] 0.108

CC(O)(CS(=O)(=O)c1ccc(F)cc1)C(=O)Nc1ccc(C#N)c(C(F)(F)F)c1 (stereo not given)
inactive: [9] 0.0986 | [10] 0.0273 | [11] 0.0782 | [12] 0.0674 | [13] 0.0286 | [14] 0.0826 | [15] 0.208 | [16] 0.095 | [17] 0.117 | [18] 0.0788 | [19] 0.134 | [20] 0.0817

CC[C@@H](C(=O)[C@@H](C)[C@@H](O)[C@H](C)[C@@H]1O[C@@H]([C@@H](CC)C(=O)O)CC[C@@H]1C)[C@H]1OC2(C=C[C@@H](O)[C@]3(CC[C@@](C)([C@H]4CC[C@](O)(CC)[C@H](C)O4)O3)O2)[C@H](C)C[C@@H]1C (stereo not given in full)
active: [1] -0.101 | [5] -0.582

CC(C)Oc1cccnc1N(C)C1CCN(Cc2ccccc2)CC1
inactive: [3] 0.0907 | [4] 0.132 | [7] 0.175 | [8] 0.0196

O=[N+]([O-])O[C@H]1CO[C@H]2[C@@H]1OC[C@H]2O[N+](=O)[O-]
inactive: [1] 0.143 | [2] 0.0742 | [5] 0.196 | [6] 0.0185

CC(N)C(O)c1ccccc1 (stereo not given)
inactive: [1] 0.0409 | [2] 0.127 | [5] 0.109 | [6] 0.126

O=C(CCCN1CCC2(CC1)C(=O)NCN2c1ccccc1)c1ccc(F)cc1
inactive: [1] 0.0953 | [2] -0.0107 | [3] 0.158 | [4] 0.0826 | [5] 0.212 | [6] 0.0511 | [7] 0.208 | [8] 0.119

O=C(O)CF
inactive: [1] -0.0204 | [2] -0.0324 | [5] 0.103 | [6] 0.0882

CCC(=O)Nc1ccc(Cl)c(Cl)c1
inactive: [1] 0.114 | [2] -0.0209 | [5] 0.0655 | [6] 0.0703

CC[C@@H](C)C(=O)O[C@H]1[C@H](O)[C@H]2[C@@H](CN3C[C@@H](C)CC[C@H]3[C@@]2(C)O)[C@@H]2C[C@]34O[C@]5(O)[C@@H](OC(=O)[C@@](C)(O)CC)CC[C@@]3(C)[C@@H]5[C@@H](OC(C)=O)[C@@H](OC(C)=O)[C@H]4[C@@]21O
inactive: [1] -0.0817 | [2] -0.0114 | [5] 0.16 | [6] -0.013

NCC1(CC(=O)O)CCCCC1
inactive: [9] 0.00201 | [10] 0.022 | [3] 0.169 | [4] 0.00729 | [11] 0.0737 | [12] 0.0617 | [13] 0.0562 | [14] 0.072 | [7] 0.117 | [8] 0.0573 | [15] 0.041 | [16] 0.028 | [17] -0.0307 | [18] 0.0446 | [19] 0.00424 | [20] 0.0664

COc1cc2ccc(=O)oc2c2ccoc12
inactive: [1] 0.222 | [2] 0.132 | [5] 0.248 | [6] 0.164

O=c1cccc2n1C[C@@H]1CNC[C@H]2C1
inactive: [1] 0.0148 | [2] -0.00559 | [5] 0.016 | [6] 0.0651

NC(CCP(=O)(O)O)C(=O)O (stereo not given)
inactive: [3] 0.115 | [4] 0.0812 | [7] 0.106 | [8] 0.13

C[N+]1(C)CCc2cc3c(cc2[C@H]1[C@@H]1OC(=O)c2c1ccc1c2OCO1)OCO3
inactive: [3] 0.123 | [4] 0.0886 | [7] 0.123 | [8] 0.104

CCC(C)C(=O)OC1CC2(C)C(c3ccoc3)OC(=O)CC23OC2(C)OC34C(OC(=O)C(C)C)C3(O)C(OC(=O)C5(C)OC5C)C5(C)CC3(O)C(C)(C5CC(=O)OC)C14O2 (stereo not given)
inactive: [1] 0.108 | [2] -0.0058 | [5] 0.0939 | [6] 0.12

COc1ccc2c(c1O)-c1cccc3c1[C@@H](C2)N(C)CC3
inactive: [3] 0.106 | [4] 0.0821 | [7] 0.152 | [8] 0.0974
